According to PubChem BioAssay AID1159614 (National Center for Advancing Translational Sciences (NCATS), 2016):
Screen size: about 45,000 compounds; about 65 (0.1%) were called active. The call rests on the fitted dose curve; in most records, active means well fitted activation curve with a large enough effect; inconclusive means small, poorly fitted or top-dose-only effect; inactive means no such curve, though single readings can be large or run the other way. The list shows a part of the results.

The compounds below were run against Galactocerebrosidase (Homo sapiens) (UniProt P54803) (assay: A Novel Cell-Based Assay to Identify Small Molecules for B -Galactocerebrosidase). Settings: 145M-Twi-hGALC-G270D cells (Twitcher mouse brain line with human GALC G270D), HMU-beta-Gal fluorescence, 48 h; series mostly up to 57.5 µM; activation: at the top concentration.
Procedure, shortened: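 Live 145M-Twi cells (Twitcher mouse brain-derived, GALC-null) stably expressing human GALC-G270D, with a wild-type GALC line, were compound-treated. Residual GALC activity was then read as fluorescence from 0.1 mM final HMU-β-gal at pH 5.2; higher signal means activation.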
Further: 0% is about no effect; nearly all actives have a fitted effect of over 65% in size.

Chain of UniProt P54803 (P54803 whole entry, looked up): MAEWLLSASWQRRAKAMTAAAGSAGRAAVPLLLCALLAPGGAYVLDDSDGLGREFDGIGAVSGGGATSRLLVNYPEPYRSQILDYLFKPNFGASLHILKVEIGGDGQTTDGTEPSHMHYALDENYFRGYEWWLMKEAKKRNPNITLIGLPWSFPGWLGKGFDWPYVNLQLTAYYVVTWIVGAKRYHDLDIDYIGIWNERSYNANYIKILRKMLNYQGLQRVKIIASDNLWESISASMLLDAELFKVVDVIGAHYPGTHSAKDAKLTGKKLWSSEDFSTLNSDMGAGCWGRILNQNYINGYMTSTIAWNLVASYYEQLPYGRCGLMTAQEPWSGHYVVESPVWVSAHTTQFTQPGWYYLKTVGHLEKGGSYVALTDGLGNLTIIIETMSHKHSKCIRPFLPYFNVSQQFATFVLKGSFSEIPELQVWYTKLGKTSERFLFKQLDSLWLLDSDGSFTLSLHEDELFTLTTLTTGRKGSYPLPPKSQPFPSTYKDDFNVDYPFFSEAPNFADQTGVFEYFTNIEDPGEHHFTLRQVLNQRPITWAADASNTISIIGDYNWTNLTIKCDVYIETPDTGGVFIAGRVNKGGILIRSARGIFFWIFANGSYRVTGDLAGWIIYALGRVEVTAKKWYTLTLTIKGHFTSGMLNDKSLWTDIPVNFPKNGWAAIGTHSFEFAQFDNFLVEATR

activation, inactive:
Cc1ccc2nc(-c3ccc(C)o3)c(Nc3ccc4c(c3)OCCO4)n2c1 -21.6%
COc1ccc(NC(=O)c2oc3ccccc3c2NC(=O)Cc2coc3ccc(C)cc23)cc1 -12%
O=C(c1cnc2c(c1)COc1ccc(Cl)cc1-2)c1ccccc1O -0.516%
COc1ccc(N2CC(NC(=O)C3CCCCC3)CC2=O)cc1OC (configuration not stated) -13.7%
COc1ccc(N2CCN(C(=O)CN3C(=O)COc4ccc(S(=O)(=O)N5CCC(C)CC5)cc43)CC2)cc1 0.348%
Clc1ccccc1CSc1nnc(C2CCNCC2)o1 -14.2%
CCOc1ccc(NC(=O)CCCOc2cc(=O)n(C)c3ccccc23)cc1 -2.06%
COc1ccc(N2CCN(S(=O)(=O)CCNC(=O)Cc3ccc(OC)c(OC)c3)CC2)cc1 -9.78%
Cc1nc(SCC(=O)Nc2nsc(-c3ccc(C(C)(C)C)cc3)n2)c2c3c(sc2n1)CCCC3 6.78%
Cc1ccc(C)c(N2CCN(C(=O)c3cc4c(=O)oc5ccccc5c4s3)CC2)c1 19.6%
O=C(Cn1c(=O)n(-c2ccccc2)c(=O)c2ccc(C(=O)NCc3ccc4c(c3)OCO4)cc21)Nc1ccc(Br)cc1 6.56%
COc1ccc(OC)c(CNC(=O)c2ccc3c(c2)c(C)c(C)n3C)c1 4.3%
CCCCN(CC)C(=O)c1nn(-c2ccc(OC)cc2)c(=O)c2c1c1ccccc1n2C -2.1%
CCOc1cc(CNC(=O)c2ccc3nc(C(C)C)oc3c2)cc(OCC)c1OCC -15.6%
O=C(CSc1nc2ncccc2o1)Nc1cccc(C(F)(F)F)c1 -8.17%
CCS(=O)(=O)c1oc(-c2ccc(F)cc2)nc1S(=O)(=O)c1ccccc1 -39.7%
C=C1C(=C/C=C2\CCC[C@]3(C)[C@@H]([C@H](C)/C=C/[C@@H](O)C4CC4)CC[C@@H]23)C[C@@H](O)C[C@@H]1O -9.79%
Cc1ccc2occ(-c3cc(-c4ccc(F)cc4)nc4c3COc3ccc(F)cc3-4)c(=O)c2c1 -10.2%
COC(=O)c1ccc(NC(=O)CCc2c(C)nc3c(c(C)nn3C(C)(C)C)c2C)cc1 -12.4%
Nc1ncnc2c1ncn2[C@@H]1O[C@H](CO)[C@@H](O)[C@H]1O -3.91%
CCN(C(=O)CSc1nc(-c2ccccc2)no1)c1ccccc1 -12.2%
CN(C)C(=O)c1ccc2c(c1)N(CC(=O)NCc1ccccc1Cl)C(=O)C1CCCCN21 (configuration not stated) -8.03%
COc1ccc(OC)c(CNC(=O)c2nn(C)c3c2CS(=O)(=O)c2ccccc2-3)c1 -6.23%
Cc1ccccc1CSc1nc(-c2cccc(F)c2)nc2c1Cc1c(CO)cnc(C)c1O2 -4.27%
CCN(CC)S(=O)(=O)c1ccc2nc(NC(=O)c3ccc(Br)o3)sc2c1 -9.32%
O=C(Nc1nc2ccc(Cl)cc2s1)c1ccc(S(=O)(=O)N2CCCC2)cc1 12.1%
CCN(CC)c1ccc(C(=O)N2CCC(c3ccncc3)CC2)cc1 -5.26%
CCOC(=O)c1nc(Nc2ccccc2C)c2ccccc2n1 -6.06%
Cc1cccc(NC(=O)C2CCCN(c3nnc(-n4c(C)ccc4C)s3)C2)c1C (configuration not stated) -18.4%
CCOc1cccc(C2c3[nH]c4ccccc4c3CCN2C(=O)CCc2ccccc2)c1 (configuration not stated) -11.1%
CC(C)c1ccc(NC(=O)CN2C(=O)c3cccc4cccc2c34)cc1 -4.63%
CCc1ccc(S(=O)(=O)c2cn(C)c3cc(OC)c(OC)cc3c2=O)cc1 -7.43%
CCCN(CCC)S(=O)(=O)c1ccc(C(=O)O)cc1 -18.1%
CCOC(=O)C1CCCN(C(=O)c2ccc3c(c2)N(Cc2cccc(Cl)c2)C(=O)c2ccccc2S3(=O)=O)C1 (configuration not stated) -17.4%
COc1ccc(C)cc1NC(=O)CN1C(=O)COc2ccc(S(=O)(=O)N3CCCCCC3)cc21 3.06%
CCCN(C(=O)Cn1c(=O)oc2cc(Cl)ccc21)c1ccc(C(C)C)cc1 -12.4%
COc1ccc(CNC(=O)Cc2coc3ccc(C(C)C)cc23)cc1 -25%
CCOc1ccccc1CNC(=O)CSc1n[nH]c(-c2ccccc2Cl)n1 -0.761%
Cc1cc(C)c(S(=O)(=O)NCC(c2ccc(N(C)C)cc2)N2CCc3ccccc32)c(C)c1 (configuration not stated) -1.15%
Cc1ccc(C)c(CN2C(=O)c3ccccc3S(=O)(=O)c3ccc(C(=O)N4CCN(C)CC4)cc32)c1 -6.68%
Cc1cc(Nc2cc(Cl)ccc2C)n2nc(Cc3ccccc3)nc2n1 -8.05%
CCOC(=O)c1ccc(Nc2nc(C(=O)OCC)nc3ccccc23)cc1 -5.73%
O=C(CN1C(=O)COc2ccc(S(=O)(=O)N3CCCCC3)cc21)NCc1ccccc1Cl -19%
COc1ccc(-c2nnc(SCC(=O)Oc3cccc(C)c3C)o2)cc1 -7.49%
COc1cccc(CNC(=O)CCc2nc(-c3ccc(C)cc3)no2)c1 -11%
COc1ccccc1NC(=O)CSc1oc(-c2ccco2)nc1S(=O)(=O)c1ccc(Br)cc1 -5.97%
Cc1cc(OCCn2cc(C(=O)c3ccco3)c3ccccc32)ccc1Cl -10.1%
COc1ccccc1Oc1nc2c(C)cccn2c(=O)c1/C=C(\C#N)c1nc2ccccc2[nH]1 -14.4%
Cc1nn(CC(=O)NCc2cccc(F)c2)c(=O)c2c(C)n(-c3ccc(Cl)cc3)nc12 6.08%
CCOC(=O)c1cc(-c2ccc(C)cc2)n(CC(=O)Nc2ccc(OC)c(Cl)c2)c1C -1.55%
CC(C)(C)NCC(O)COc1ccc(NC(=O)NC2CCCCC2)cc1 (configuration not stated) -12.2%
Cc1ccc(CCNC(=O)c2cc3sccc3n2Cc2ccc(Cl)cc2)cc1 -17.2%
COc1ccc(-n2cc(C(=O)NCc3ccc(Cl)cc3)c3ccccc3c2=O)cc1 -3.1%
COc1ccc2nc(N(Cc3cccnc3)C(=O)c3ccco3)sc2c1 -8%
CCOC(=O)C1=C(CN2CCN(c3cc(C)ccc3C)CC2)NC(=O)NC1c1ccccc1 (configuration not stated) 14.4%
CC1CN(C(=O)CCC(=O)NCc2cccs2)c2cc(Cl)ccc2O1 (configuration not stated) -26.6%
COc1ccc(N(C(=O)c2ccccc2C)S(=O)(=O)c2ccc(C)cc2)cc1 -11.5%
Cc1ccc2c(c1)c1c(c(=O)n(-c3ccccc3)c(=O)n1CC(=O)NCCC1=CCCCC1)n2C 7.77%
Cc1ccc(-c2nnn(CC(=O)N(CC(=O)NCCC(C)C)c3ccc(F)cc3)n2)cc1 -16.4%
O=C(c1ccc2c(c1)OCCO2)N(Cc1cccnc1)c1nc2ccc(Cl)cc2s1 -9.22%
COc1cccc(CN2C(=O)C3(SCC(=O)N3c3cc(C)cc(C)c3)c3ccccc32)c1 (configuration not stated) -35.4%
COc1ccccc1N1CCN(S(=O)(=O)c2cc(-c3cc(C)no3)ccc2C)CC1 -16.8%
CCc1ccc2oc(C(=O)NCCc3ccc(OC)c(OC)c3)cc(=O)c2c1 -13.9%
Cc1ccc2nc(-c3c[nH]c4ccccc34)c(Nc3ccccc3)n2c1 -12%
O=C(NCCc1ccc(F)cc1)C(=O)NCC(c1ccc2c(c1)OCO2)N1CCOCC1 (configuration not stated) -12.9%
Cc1coc2c1c(C)cc1oc(=O)c(CC(=O)NCc3ccc(Cl)cc3)c(C)c12 -2.26%
CCCCCOC(=O)c1ccc(Nc2nc(C(=O)OCC)nc3ccccc23)cc1 -15.3%
Cc1ccc(C(C)C)c(OCC(=O)Nc2nc3c(s2)CCCC3)c1 -18.7%
CCN(CC)C(=O)c1cccc(C)c1 -19.8%
COc1ccc(S(=O)(=O)Nc2cc(-c3cn4cccc(C)c4n3)ccc2C)cc1C -24.1%
COc1ccc(NC(=O)C(C)n2nc(C)c3c(C)n(-c4ccccc4)nc3c2=O)cc1Cl (configuration not stated) 23.9%
CCOCCCNC(=O)C(c1ccc(Cl)cc1)N(Cc1ccc2c(c1)OCO2)C(=O)c1ccccc1O (configuration not stated) -11.9%
CCOc1ccc(C(=O)N2CCN(Cc3cc(=O)n4nc(-c5cccc(OC)c5)sc4n3)CC2)cc1 -9.29%
Cc1cccc(NC(=O)c2ccc(F)c(S(=O)(=O)N(C)C3CCCCC3)c2)c1 -9.59%
COc1ccc(N2CCN(C(=O)c3cccn4c(=O)c5ccc(Cl)cc5nc34)CC2)cc1 -16.2%
COc1ccc(-c2nc(S(=O)(=O)c3ccccc3)c(N3CCCCC3)o2)cc1 -12.3%
CCN(Cc1nc(-c2ccc(OC)cc2)oc1C)S(=O)(=O)c1ccc(Cl)cc1 -26%
Cc1ccccc1CNCCCSc1nnnn1-c1ccccc1 -9.93%
Cc1ccc2oc(=O)c3cnn(CC(=O)Nc4ccc(Br)cc4C)c3c2c1 -10.3%
CCN1C(=O)c2ccccc2Sc2ccc(NC(=O)Nc3ccc(C(C)=O)cc3)cc21 -1.73%
Cc1cc(C)c(Cn2c(C)c(CNCc3ccccc3C)c(C(=O)O)c2C)c(C)c1 -6.97%
CCc1ccccc1NC(=O)C(=O)c1cc(C)n(-c2ccccc2F)c1C -11.5%
O=C(c1ccco1)N(Cc1cccnc1)c1nc2c(F)cccc2s1 -24.8%
CC1CCCCN1C(=O)CSc1nc2ccccc2nc1Cc1ccc(Cl)cc1 (configuration not stated) -4.38%
CCc1cccc(C)c1NC(=O)COCc1cc(-c2ccc3c(c2)OCO3)on1 -12.1%
Cc1c(CCNS(=O)(=O)c2ccccc2)sc2nc(-c3ccc(Cl)cc3)nn12 -15.2%
COC(=O)c1cc(NC(=O)c2cnc(SC)nc2-c2ccccc2)cc(C(=O)OC)c1 -5.01%
CCNc1nc2c(c(=O)n(C)c(=O)n2C)n1CC(O)COc1ccccc1 (configuration not stated) -39.8%
O=C(CC1N=C2c3ccccc3N=C(SCc3ccc(Cl)cc3)N2C1=O)NC1CCCCC1 (configuration not stated) -14.4%
COc1ccc(NC(=O)Nc2cccc(C)n2)c(OC)c1 -14.8%
Cc1c2cnn(CC(=O)O)c(=O)c2c(C)n1Cc1cccc(Cl)c1 -10.6%
Cc1cc2c(cc1S(=O)(=O)CCC(=O)Nc1ccc(OC(F)(F)F)cc1)OCC(=O)N2 -3.3%
Nc1c(C(=O)Nc2ccccc2Cl)nnn1Cc1cccc(Cl)c1 -20.6%
COc1cc(OC)cc(-c2nc3nc(C)c(CCC(=O)Nc4ccc(C)cc4)c(C)n3n2)c1 -0.731%
Cc1ccc(NCc2nc3ccccc3n2CCOc2ccccc2C)cc1 -7.57%
Cc1ccc(-n2ncc3c(N4CCC(C)CC4)ncnc32)cc1C -13.9%
COc1ccc(C(C(=O)NCc2ccccc2)N(C(=O)Cn2nnc3ccccc32)c2ccc(F)cc2)cc1 (configuration not stated) -14.6%
